Laboratory results as given in the supplement of paper PMC7335073.
Whole data set: some 4,100 sequences, median “relative CpG methylation activity (normalised to average over all NNNCGNNN flanks)” near 0.87, cut for the highest 2% near 2.4. The list shows a part of the results.

What follows are sequences tested against DNMT3A catalytic domain (mouse) (UniProt O88508) (assay: relative CpG methylation activity (normalised to average over all NNNCGNNN flanks) (relative (1 = mean)); higher = more methylation of the central CpG). Conditions: system: in vitro, murine catalytic domain; CpG state: hemimethylated substrate pool; residues: 608-908.
Procedure: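 Deep enzymology: a pool of dsDNA substrates with a central CpG flanked by 10 random nucleotides on each side was methylated by the murine DNMT3A or DNMT3B catalytic domain (0.8 mM SAM, 37 °C, 60 min). Methylation was then read out by hairpin ligation, bisulfite conversion and NGS. Values are the average methylation of each NNNCGNNN context (±3 flanks; the outer flanks are random and averaged over), normalised to the overall mean, so 1 = average activity.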

Sequence	relative CpG methylation activity
CGGCGTTG	0.39
TTACGCCC	2.64
GAACGCGC	0.824
CACCGATC	1.28
GAGCGTTA	0.741
CTACGGAC	2.28
AGGCGAGG	0.379
ACCCGAGC	1.82
CGTCGTCG	0.989
TGCCGATT	0.424
TTCCGTCT	2.58
ATTCGAAT	0.851
TCTCGGAT	0.816
TATCGGCT	0.701
GGACGTCT	1.1
ATACGGGG	1.08
GTACGCTT	2.66
AGTCGGAG	0.137
ACACGTCA	2.19
AGACGGCG	0.744
AGGCGTGG	0.0781
TAACGTTT	0.714
CCACGCGA	1.12
GGTCGTCG	0.968
TAACGTTC	1.06

Sequence	relative CpG methylation activity
TTACGCAC	2.32
GCTCGCGT	0.862
GTCCGGTA	1.67
TGCCGTTA	0.5
GCGCGCAC	1.23
GTTCGTGC	0.783
AATCGCAT	0.525
CCGCGCCA	1.37
GCGCGTTC	1.27
AATCGCTA	0.779
GAACGTTG	0.245
AGGCGGGT	0.616
TGTCGTTC	0.867
AAACGAGA	0.431
ATTCGTTA	1.14
GCCCGGTA	1.05
TGGCGTGA	0.105
GGACGGTG	0.111
CAACGTCA	1.43
GACCGAAT	0.968
TCGCGTTC	1.24
AACCGCGT	0.604
GGGCGACG	0.851
GTTCGTTT	1.18
ACGCGCAA	0.908

Sequence	relative CpG methylation activity
ACACGACG	1.26
CGACGTAT	0.567
TCTCGAAG	0.588
CTACGGTA	1.45
CGGCGAAC	1.06
AGCCGGGA	0.357
CAACGTCT	0.833
CTACGAAC	2.15
TGACGGGA	0.551
GGACGAGA	0.605
ATACGCTG	2.12
ATTCGTAA	1.24
ATGCGACT	1.09
TCCCGCTC	1.82
GCACGACA	1.44
TTCCGGGG	0.556
AAACGCGT	0.522
TCCCGAGG	0.664
GAACGTTT	0.656
GATCGGCT	0.647
GGCCGTGA	0.44
TTACGGGC	2.31
ACTCGGAC	1.07
GTGCGTAG	0.947
ACTCGAGT	0.929

Sequence	relative CpG methylation activity
AGACGGTA	0.503
AAACGATG	0.235
ACACGGTA	1.27
CCACGCAA	1.52
ACGCGCAC	1.04
ACTCGCAC	1.39
TGTCGCGT	0.388
GCGCGTGC	0.431
ATTCGTCA	1.57
CGGCGATC	0.759
GTTCGTAA	1.5
TGGCGACA	0.699
ATCCGGGG	0.781
CCTCGGTT	0.723
CCACGGAT	1.32
TTCCGATA	2.01
AACCGGGA	0.529
CTGCGCTC	2.22
ACGCGTCT	1.25
GCACGGGC	1.47
AACCGTTG	0.662
CAACGACG	0.491
GGTCGACT	0.573
CAACGCCT	1.45
GCACGGTG	0.96

Sequence	relative CpG methylation activity
AGGCGAAT	0.772
TTACGGAT	1.72
TACCGTGC	0.457
CAGCGGAC	0.682
CGACGCAG	0.425
GCGCGCAG	0.591
TCCCGTAA	1.43
TGACGATG	0.323
TCTCGACA	0.767
GCACGAGT	1.2
ATGCGAAA	1.17
AGCCGCGC	0.879
GCTCGGGT	0.565
CGACGCCT	1.29
GTCCGTAG	0.889
AATCGACA	0.409
ACTCGTCG	1.41
CGCCGATT	0.629
TTGCGCGC	1.55
CTGCGTTA	1.2
CTTCGGCC	1.36
TTCCGCGA	1.52
CTCCGGAA	1.38
GGCCGCTT	1.75
CACCGGCC	1.28

Sequence	relative CpG methylation activity
AATCGGCA	0.377
TCTCGACG	0.648
AAACGGTC	0.701
GGCCGAAA	0.863
GGCCGCAC	0.912
GGGCGTGG	0.025
TCTCGTTT	0.688
GTGCGTTG	0.846
AACCGAAT	0.859
CTGCGAGC	1.61
GAACGCGT	0.528
GGCCGGTA	0.722
TGTCGCAT	0.692
GCACGTCT	1.34
CAACGAAC	0.954
GTGCGTAC	1.4
TTTCGGAA	1.03
CTGCGGAC	1.53
CCTCGTCG	1.57
GTGCGCAC	1.56
GGTCGCAT	0.672
TTCCGTAC	1.75
CTGCGCTT	2.3
GCACGCCT	2.25
CAACGTCG	1.23

Sequence	relative CpG methylation activity
ACGCGGTT	0.854
CGCCGGCA	0.789
TAGCGATT	0.606
ATTCGCGA	0.574
GACCGCAG	0.547
GTGCGCAT	1.41
GGGCGGTG	0.385
CTACGTGC	1.34
TCACGCCC	2.31
GGCCGTCT	1.4
GTCCGTGA	0.951
GGTCGGTA	0.461
CGTCGCGA	0.595
GCGCGTCT	1.14
GCGCGGAG	0.455
TATCGGAA	0.431
TCTCGCGC	1.27
TCTCGCGT	1.42
TTCCGAAA	2.05
AGACGGGT	0.529
GCTCGAGT	0.789
TTTCGACG	0.935
CGACGGCT	0.427
AAGCGCCC	1.53
GTACGAAA	1.64

Sequence	relative CpG methylation activity
ACGCGCGA	0.617
TCTCGTGA	0.842
TATCGTTA	0.458
CGACGTAA	0.865
ACTCGGTC	1.25
GGACGTGT	0.375
AGGCGTTT	0.588
ATGCGTTA	1.52
ATACGGAG	0.805
TCCCGTCT	1.64
CCGCGCTC	1.75
AATCGAGA	0.236
TGGCGTAC	0.55
ATGCGAAC	1.66
TTTCGCAA	1.42
GTACGCGG	0.656
ATGCGCGT	1.13
CATCGGTA	0.64
TTCCGGTT	1.33
AAACGGAT	0.45
CGACGCCA	1.29
CCGCGAAG	0.395
GCACGATC	1.84
GAACGCCG	1.42
TTCCGGGT	1.16

Sequence	relative CpG methylation activity
CGACGAGT	0.625
TGACGGGG	0.274
GTCCGCTT	2.54
GTACGGGA	1.06
AAACGCGG	0.329
CTACGAGG	0.826
GCCCGCCT	2.17
CAGCGTCC	0.828
TTTCGACC	1.36
CGGCGTGG	0.025
ACACGACC	1.72
GGACGTAG	0.18
GACCGTAG	0.224
AAGCGTAA	0.854
CTTCGGCA	0.902
TCTCGGGG	0.769
TATCGTAG	0.465
GGTCGGGA	0.149
AAGCGCTC	1.63
ATTCGGTG	0.625
TTCCGGAA	1.68
TTTCGCCT	2.24
GGTCGCGT	0.426
AGCCGTGT	0.263
AACCGCCT	1.76

Sequence	relative CpG methylation activity
GCACGCCG	1.62
TCCCGCGG	0.476
CGGCGCCG	1.36
ATTCGTGG	0.174
CTGCGGGA	0.764
CCTCGGCT	1.42
GACCGTGT	0.446
ACGCGTCA	1.45
AGTCGGAT	0.139
AGTCGCCC	1.53
CGGCGTCC	0.973
AAACGAAC	0.818
CACCGTAT	0.323
TTGCGGTA	1.17
CGTCGGCT	0.823
TACCGGGT	0.598
GCACGGGT	0.759
AGTCGAGC	0.94
GTGCGCGG	0.547
ACGCGCTT	1.83
GGTCGGGT	0.27
TGACGAAG	0.412
CGTCGGGC	0.746
TAGCGTAT	0.297
GATCGGGG	0.159

Sequence	relative CpG methylation activity
GCACGGGA	1.04
GGACGTCG	1.01
TGACGGTC	0.636
GAACGACT	0.672
TATCGGTA	0.417
CGTCGAGA	0.333
ATCCGCGC	1.76
ACTCGCAA	1.06
GGGCGCGA	0.679
GGGCGTTT	0.238
GGCCGCGA	0.973
CGGCGGCG	0.517
CTCCGAAT	1.39
TCTCGTAC	0.759
CCGCGTTC	1.34
GCCCGCGA	1.06
CGTCGTGG	0.246
ATCCGACT	1.44
GTCCGTGG	0.588
CCCCGGTG	0.539
TGTCGATA	0.255
GTGCGACT	1.59
TCGCGCCC	1.58
GTCCGGCC	1.95
GGACGTCC	1.27

Sequence	relative CpG methylation activity
TGTCGATC	0.929
TTCCGACT	1.9
ATGCGACG	1.57
ACGCGGCC	1.26
AGCCGTAA	0.721
CGACGAAC	0.915
TCACGAAA	1.08
CGCCGGCC	0.909
AAACGTGA	0.312
GGACGATT	0.55
GCTCGCCA	1.82
CTGCGAGG	0.764
GTCCGCCA	1.87
TGACGACC	0.727
AGTCGTCG	0.73
ATGCGCAA	1.49
TAACGGTT	0.556
AGCCGAAG	0.419
GAGCGTAC	0.689
GAACGTTC	0.876
GTCCGCCT	2.6
CTCCGGTA	1.29
GCTCGAGG	0.538
CTCCGCTC	2.19
ACACGGCA	1.69

Sequence	relative CpG methylation activity
GTACGCAG	1.08
ATGCGGTT	0.679
GGACGAGG	0.282
ATGCGCAG	1.09
TTCCGTTT	1.52
CCGCGGGG	0.0962
GTCCGTTT	1.38
ATGCGGCA	1.23
GATCGCTA	0.757
CGGCGGAG	0.025
AAACGCAT	0.686
CAGCGCAC	0.701
ACCCGTAT	0.921
TATCGGGC	0.556
GGGCGGTC	0.962
AGTCGCGC	0.408
CGCCGGTA	0.746
CGCCGACA	0.962
ACACGGTG	0.321
CCACGGTC	1.49
TGTCGTCC	1.39
GGGCGGTA	0.543
AGGCGGAA	0.565
TTCCGAGT	1.61
TGTCGTCG	1.13

Sequence	relative CpG methylation activity
ATCCGGTA	1.3
ATCCGGAT	1.34
CGACGTAG	0.598
AGACGCAG	0.457
TCGCGAGT	0.57
CCCCGGGC	1.25
TGACGCAA	0.89
GTGCGAGG	0.764
CACCGGCG	0.51
GTCCGTTG	1.25
CGGCGCAC	1
CTACGCTC	2.66
GCACGCTG	1.67
TGCCGAGG	0.443
ATGCGCAT	1.65
ACCCGGCA	1.26
ATACGTTC	2
GCGCGTAG	0.824
TGACGTAC	0.438
